Measurements: the supplement of paper PMC11417369
The other results are listed elsewhere or left out.

tested on: PfHDP1 homeodomain (GST-tagged); test: gcPBM binding intensity (ln(normalized median fluorescence intensity)); higher = stronger DNA binding
Summary of the method: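 Binding intensity is the highest Masliner-normalised natural-log median intensity over replicate spots in either probe orientation. To obtain it, GST-tagged P. falciparum DNA-binding domains made in E. coli were incubated for 1 h on an Agilent 4 × 180k array of primer-extended double-stranded 36-bp intergenic genomic probes plus negative controls. Detection used Alexa488 anti-GST antibody with scanning at 488 nm.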

Going from “TTCTTAATATTGCATGCACACTATATAATAATTGAA [CACACA_site4720]” to “ACACTAACATCATATCGTACATTTGTTAATTTATAA [XGTACX_site8654]”, the “gcPBM binding intensity (ln)” value falls from 9.18 to 6.66.

Compared with TATTTATTTTTTTTTGTGCACTTAATATAATCTTAC, “TTTTCCCTCTTATTCACACAAAAAAAATAAAATAAA [CACACA_site4656]” is lower in “gcPBM binding intensity (ln)” value: 9.51 for the first, 6.5 for the second.

Compared with “ATATAATAATATTATACATGCAAAATATGTTCTTCA [TGCATGCA_site115]”, “ATCGCATATACATTATATTTTATAATAATTATTTTT [GTGCAC_negctrl_site48]” is higher in “gcPBM binding intensity (ln)” value: 6.67 for the first, 7.01 for the second.

Compared with “AGACTATCATTTTTTTAACACACAAAAAAAATAAAA [CACACA_site9173]”, “TAACAAATATTATTTTGTACATAATATATATATATA [XGTACX_site6898]” is higher in “gcPBM binding intensity (ln)” value: 6.35 for the first, 8.68 for the second.

“TATTTTTTTATTTATTGTACTTTAAAAAAAATTAAA [XGTACX_site6167]” and AATACACACCTGTGGGTGCTTATAATAAGCCACAAA are the same in “gcPBM binding intensity (ln)” value: 6.61 for the first, 6.61 for the second.

First: ATATATTTATATTATACACACAAAAATATTTTGTAT [CACACA_site6262]
Second: TATATATATTAATTTATTTATTTGTTTATTTATTTA [CACACA_negctrl_site185]
The “gcPBM binding intensity (ln)” value of the first is higher: 6.61 for the first, 6.41 for the second.

Going from “TTATAAAAATATTACGCACACACAAACTTATTCATT [CACACA_site1970]” to “GGGAAACGATTTAATACACACACGTATTATATATAT [CACACA_site1160]”, the “gcPBM binding intensity (ln)” value falls from 7.47 to 7.22.

Compared with “ATATAAAATATGAGTAGTACATATTTTCTCATCTTA [XGTACX_site8595]”, “CACAAAAGTAAGCACGCACACACAACATGAAATAAA [CACACA_site7938]” is higher in “gcPBM binding intensity (ln)” value: 6.05 for the first, 6.79 for the second.

First: CATTTTTTGTAAAATCGTACATATACATAAAGTGGT [XGTACX_site3423]
Second: AAAGACAAAAGGAATTGTACATAATATATAAAATAT [XGTACX_site2923]
The “gcPBM binding intensity (ln)” value of the first is higher: 6.43 for the first, 6.27 for the second.

Compared with “AATTTTATTTAAAGTGCATGTAAAATTAAAACTTTT [TGCATGCA_site989]”, “TATGAATTTATCTACAACATTTGAAATAAATTAAAA [CACACA_negctrl_site79]” is lower in “gcPBM binding intensity (ln)” value: 6.82 for the first, 6.04 for the second.

Going from “TGTATACACATATGTACACACATATAGATGTATATG [CACACA_site7447]” to “ATAATGTATATTATTGCACACATATATAAAATTATG [CACACA_site8280]”, the “gcPBM binding intensity (ln)” value rises from 7.26 to 10.5.

First: TTTTATAAAAACAAAAACAAAGGCACTTTCTAAAGA [XGTACX_negctrl_site130]
Second: AATATAAATATAAATATAAATATATATATATATATA [TGCATGCA_negctrl_site603]
The “gcPBM binding intensity (ln)” value of the first is lower: 6.68 for the first, 9.17 for the second.

First: TAAATAAATACATACACACACATACCTATATTTATA [CACACA_site7466]
Second: TTTTTTTAATAAATTTATAACAATATGATAGGTGAC [CACACA_negctrl_site1783]
The “gcPBM binding intensity (ln)” value of the first is lower: 6.65 for the first, 7.05 for the second.

Going from “TGAATCAATTGTTGCTGTACATAAGGTATACAATAA [XGTACX_site5127]” to “AGTTAAATGAATCAATACATAAATATGTATATATAT [TGCATGCA_negctrl_site539]”, the “gcPBM binding intensity (ln)” value rises from 6.45 to 6.49.

First: TATTTGGGTATTTTTACACACATTAATATATATATA [CACACA_site9114]
Second: AAAGATAATAATATGCGTACATAAAAATATATGATA [XGTACX_site6884]
The “gcPBM binding intensity (ln)” value of the first is higher: 8.35 for the first, 6.35 for the second.

First: ATAATGGAAAAAAAATATAATAATACGAAATAGGAA [TGCATGCA_negctrl_site64]
Second: AAGAATTATAGAAACACACATACATACAGACATACA [CACACA_site1943]
The “gcPBM binding intensity (ln)” value of the first is higher: 6.83 for the first, 6.7 for the second.

Going from “TAATTACCATATGGTACACACATATATATCTGTATA [CACACA_site5849]” to “AAGAAGAGTTATTGTAGTACATTTTTAAATGTAATA [XGTACX_site7664]”, the “gcPBM binding intensity (ln)” value falls from 6.72 to 6.22.

Compared with “AATAATATCTGAAAATGTACATTTTATTATAAACAT [XGTACX_site8441]”, “TCATTATTATATAATTGTACATAATAATTATATCCA [XGTACX_site1801]” is lower in “gcPBM binding intensity (ln)” value: 6.65 for the first, 6.24 for the second.

First: AATATAATATATATTAGTACATATATATATATATAT [XGTACX_site870]
Second: CCTCATATTATAGACACACACAAAAAAAATAAAAAA [CACACA_site180]
The “gcPBM binding intensity (ln)” value of the first is higher: 9.29 for the first, 6.59 for the second.

Going from “ATGTATGTGTATATATGTACATAATATATATCTTTT [XGTACX_site8666]” to “ATGCAAACTAAAAGACGTACAGAAAAGTATCATACT [XGTACX_site8766]”, the “gcPBM binding intensity (ln)” value falls from 6.6 to 6.23.

Compared with “TGATTATTTTATATTTGTACACATATCATATAAAAA [XGTACX_site5868]”, “ACATAATATTGAAGAAGTACAAATTTTATTTATTAT [XGTACX_site4113]” is lower in “gcPBM binding intensity (ln)” value: 6.61 for the first, 6.25 for the second.

Compared with “ACGTTTTTGAGTAGTACACACACAATAAGGATGGAT [CACACA_site9044]”, “ATAATAATATAAAAATGTACATATATTTATAATTGT [XGTACX_site3429]” is lower in “gcPBM binding intensity (ln)” value: 7.11 for the first, 6.25 for the second.

With “TCTTTGTATATATGTTCATTTGTAATATATATTCAT [TGCATGCA_negctrl_site467]” the “gcPBM binding intensity (ln)” value was 6.48.
